According to patent US9499612B2, “Antigen binding constructs” (Glaxo Group Limited, priority 2011, dated 2016):

Columns and labels:
rhVEGF165 [1] = biological target: T1, rhVEGF165 (Homo sapiens, UniProt P15692); experiment: Modified MSD assay: binding to VEGF after pre-saturation with the other dAb format; conditions: pre-saturation ≧3 μg/mL; FIG. 2A/2B
T1 construct: made in house; host or cells: HEK293 cells, transient transfection
T1 sequence (P15692 27-191 isoform P15692-4): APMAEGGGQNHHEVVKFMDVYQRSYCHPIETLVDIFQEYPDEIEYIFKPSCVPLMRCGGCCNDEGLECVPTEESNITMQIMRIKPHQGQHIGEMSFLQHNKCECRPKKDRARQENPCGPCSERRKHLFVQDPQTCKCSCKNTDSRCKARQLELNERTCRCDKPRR
Protocol: A MSD™ high bind 96 well plate (MSD™ L11XB-3) was coated with 3 μg/mL rhVEGF165 (sourced ‘in house’ from transient transfection of HEK293 cells) in PBS (25 μl/well), covered with a plate sealer and incubated overnight at 4° C. The next day the MSD™ plate was washed 3×300 μl/well with Tris wash buffer and blotted over a pad of tissue to remove excess wash buffer from the wells. The MSD™ plate was then blocked with 3% BSA in PBS (250 μl/well) and incubated shaking (750 RPM) at room temperature for 1 hour. […] The MSD™ plate was washed again before the addition of DMS1576 (25 μl/well, 0-100 ng/ml) and incubated shaking (750 RPM) at room temperature for 1 hour. […] Prior to measurement of the electrochemiluminescence in a MSD™ SECTOR IMAGER 6000™ MSD™ plate was washed and 150 μL/well of 2× Read Buffer T (MSD™ R92TC-1) was added.
The next day the MSD™ plate was washed 3×300 μl/well with Tris wash buffer and blotted over a pad of tissue to remove excess wash buffer from the wells. […] Prior to measurement of the electrochemiluminescence in a MSD™ Sector Imager 6000, the MSD™ plate was washed and 15011/well of 2× Read Buffer T (MSD™ R92TC-1) was added.

rhVEGF165 [2] = biological target: T1, rhVEGF165; experiment: BIACORE T100 SPR binding to VEGF165 at 37° C.; conditions: Table 11A
Protocol: (§1) The run was carried out at 37° C., using HBS-EP as the running buffer.
as §1, §1, §1, §1

Kd (rhVEGF165 [2]; 37 °C): Too tight
fit (rhVEGF165 [2]; fit to 1:1 model): ok
B1: DMS30000: Vk Fc-dAb (SEQ ID NO:3 & 31); DT02-K-044-085 dAb, (GS(TVAAPSGS)x3) C-terminal linker (protein)
chain: [human IgG1 Fc and a few adjoining residues not shown]GSTVAAPSGSTVAAPSGSTVAAPSGSDIQMTQSPSSLSASVGDRVTITCRASQWIGPELKWYQQKPGKAPKLLIYHGSILQSGVPSRFSGSGSGTDFTLTISSLQPEDFATYYCQQYMYYPHTFGQGTKVEIKR
modifications: C-terminal Fc fusion of K-044-085 DAB (GS(TVAAPSGS)x3 Linker) Fc-dAb nucleic acid sequence identified using molecular biology techniques.
binding to VEGF165 pre-saturated with the other molecule (in words) (rhVEGF165 [1]): bind VEGF165 which has been pre-saturated
